# Measured values published in the supplement of paper PMC8728848.
# This is one part of the list.
# Columns and labels:
# Experiment in all cases: glycan array binding signal (z-score within array); higher = stronger binding
# Conditions in all cases: glycan notation: IUPAC condensed, linker removed
# [1] = target: GalNAc(b1-3)GalNAc
# Summary of the method: (§1)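 From the Consortium for Functional Glycomics database, 3228 arrays were curated, keeping only those whose protein sequence was available. Binding is given as a within-array Z-score averaged across arrays sharing a protein sequence and across linkers. Negative Z-scores can be read as non-binding.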
# [2] = target: GalNAc(b1-4)GlcNAc
# Summary of the method: as §1
# [3] = target: GalNAc(b1-4)GlcNAc(b1-2)Man(a1-3)[GalNAc(b1-4)GlcNAc(b1-2)Man(a1-6)]Man(b1-4)GlcNAc(b1-4)GlcNAc
# Summary of the method: as §1
# [4] = target: GalNAc(b1-6)GalNAc
# Summary of the method: as §1
# [5] = target: Glc(a1-4)Glc
# Summary of the method: as §1
# [6] = target: Glc(a1-6)Glc(a1-6)Glc
# Summary of the method: as §1
# [7] = target: Glc(b1-4)Glc
# Summary of the method: as §1
# [8] = target: Glc(b1-6)Glc
# Summary of the method: as §1
# [9] = target: GlcA(b1-3)Gal
# Summary of the method: as §1
# [10] = target: GlcA(b1-3)GlcNAc
# Summary of the method: as §1
# [11] = target: GlcA(b1-6)Gal
# Summary of the method: as §1
# [12] = target: GlcNAc(a1-3)Gal(b1-4)GlcNAc
# Summary of the method: as §1
# [13] = target: GlcNAc(a1-4)Gal(b1-3)GlcNAc
# Summary of the method: as §1
# [14] = target: GlcNAc(a1-4)Gal(b1-4)GalNAc
# Summary of the method: as §1
# [15] = target: GlcNAc(a1-4)Gal(b1-4)GlcNAc
# Summary of the method: as §1
# [16] = target: GlcNAc(a1-4)Gal(b1-4)GlcNAc(b1-3)Gal(b1-4)Glc
# Summary of the method: as §1
# [17] = target: GlcNAc(a1-4)Gal(b1-4)GlcNAc(b1-3)Gal(b1-4)GlcNAc
# Summary of the method: as §1
# [18] = target: GlcNAc(a1-4)Gal(b1-4)GlcNAc(b1-3)Gal(b1-4)GlcNAc(b1-3)Gal(b1-4)GlcNAc
# Summary of the method: as §1
# [19] = target: GlcNAc(a1-4)Gal(b1-4)GlcNAc(b1-3)Gal(b1-4)[Fuc(a1-3)]GlcNAc(b1-3)Gal(b1-4)[Fuc(a1-3)]GlcNAc
# Summary of the method: as §1
# [20] = target: GlcNAc(a1-6)Gal(b1-4)GlcNAc
# Summary of the method: as §1
# [21] = target: GlcNAc(b1-2)Gal(b1-3)GalNAc
# Summary of the method: as §1
# [22] = target: GlcNAc(b1-2)Man(a1-3)[GlcNAc(b1-2)Man(a1-6)]Man(b1-4)GlcNAc(b1-4)GlcNAc
# Summary of the method: as §1
# [23] = target: GlcNAc(b1-2)Man(a1-3)[GlcNAc(b1-2)Man(a1-6)]Man(b1-4)GlcNAc(b1-4)[Fuc(a1-6)]GlcNAc
# Summary of the method: as §1
# [24] = target: GlcNAc(b1-2)Man(a1-3)[GlcNAc(b1-4)][GlcNAc(b1-2)Man(a1-6)]Man(b1-4)GlcNAc(b1-4)GlcNAc
# Summary of the method: as §1
# [25] = target: GlcNAc(b1-2)[GlcNAc(b1-4)]Man(a1-3)[GlcNAc(b1-2)Man(a1-6)]Man(b1-4)GlcNAc(b1-4)GlcNAc
# Summary of the method: as §1
# [26] = target: GlcNAc(b1-2)[GlcNAc(b1-4)]Man(a1-3)[GlcNAc(b1-4)][GlcNAc(b1-2)Man(a1-6)]Man(b1-4)GlcNAc(b1-4)GlcNAc
# Summary of the method: as §1
# [27] = target: GlcNAc(b1-2)[GlcNAc(b1-4)]Man(a1-3)[GlcNAc(b1-4)][GlcNAc(b1-2)[GlcNAc(b1-6)]Man(a1-6)]Man(b1-4)GlcNAc(b1-4)GlcNAc
# Summary of the method: as §1
# [28] = target: GlcNAc(b1-2)[GlcNAc(b1-6)]Man(a1-6)[GlcNAc(b1-2)Man(a1-3)]Man(b1-4)GlcNAc(b1-4)GlcNAc
# Summary of the method: as §1
# [29] = target: GlcNAc(b1-2)[GlcNAc(b1-6)]Man(a1-6)[GlcNAc(b1-2)Man(a1-3)][GlcNAc(b1-4)]Man(b1-4)GlcNAc(b1-4)GlcNAc
# Summary of the method: as §1
# [30] = target: GlcNAc(b1-3)Gal
# Summary of the method: as §1
# [31] = target: GlcNAc(b1-3)Gal(b1-3)GalNAc
# Summary of the method: as §1
# [32] = target: GlcNAc(b1-3)Gal(b1-4)Glc
# Summary of the method: as §1
# [33] = target: GlcNAc(b1-3)Gal(b1-4)GlcNAc
# Summary of the method: as §1
# [34] = target: GlcNAc(b1-3)Gal(b1-4)GlcNAc(b1-3)Gal(b1-4)GlcNAc
# Summary of the method: as §1
# [35] = target: GlcNAc(b1-3)GalNAc
# Summary of the method: as §1
# [36] = target: GlcNAc(b1-3)Man
# Summary of the method: as §1
# [37] = target: GlcNAc(b1-3)[GlcNAc(b1-4)][GlcNAc(b1-6)]GlcNAc
# Summary of the method: as §1
# [38] = target: GlcNAc(b1-3)[GlcNAc(b1-6)]Gal(b1-4)GlcNAc
# Summary of the method: as §1
# [39] = target: GlcNAc(b1-3)[GlcNAc(b1-6)]GalNAc
# Summary of the method: as §1
# [40] = target: GlcNAc(b1-4)Gal(b1-4)GlcNAc
# Summary of the method: as §1
# [41] = target: GlcNAc(b1-4)GlcNAc
# Summary of the method: as §1
# [42] = target: GlcNAc(b1-4)GlcNAc(b1-4)GlcNAc
# Summary of the method: as §1
# [43] = target: GlcNAc(b1-4)GlcNAc(b1-4)GlcNAc(b1-4)GlcNAc(b1-4)GlcNAc
# Summary of the method: as §1
# [44] = target: GlcNAc(b1-4)GlcNAc(b1-4)GlcNAc(b1-4)GlcNAc(b1-4)GlcNAc(b1-4)GlcNAc
# Summary of the method: as §1
# [45] = target: GlcNAc(b1-4)[GlcNAc(b1-6)]GalNAc
# Summary of the method: as §1
binder,measurement,setting,value
Gal 7 (Canis lupus) (protein) MAGSSNVPHKTSLPEGIRVGTVMRIRGVVPNKAGRFYVNLLCGEAPGSEAALHFNPRLDESTVVFNTLEQGAWGREERGTGIPFQRGQPFDVLLIATDEGFKAVVGDSEYHHFRYRIPPARVRLLEVGGDLQLESVSVF,glycan array binding signal (z-score),[1],-0.214
same,glycan array binding signal (z-score),[2],-0.21
same,glycan array binding signal (z-score),[3],-0.205
same,glycan array binding signal (z-score),[4],-0.158
same,glycan array binding signal (z-score),[5],-0.211
same,glycan array binding signal (z-score),[6],-0.217
same,glycan array binding signal (z-score),[7],-0.2
same,glycan array binding signal (z-score),[8],-0.208
same,glycan array binding signal (z-score),[9],-0.219
same,glycan array binding signal (z-score),[10],-0.174
same,glycan array binding signal (z-score),[11],-0.208
same,glycan array binding signal (z-score),[12],-0.199
same,glycan array binding signal (z-score),[13],-0.215
same,glycan array binding signal (z-score),[14],-0.211
same,glycan array binding signal (z-score),[15],-0.209
same,glycan array binding signal (z-score),[16],1.07
same,glycan array binding signal (z-score),[17],2.48
same,glycan array binding signal (z-score),[18],2.48
same,glycan array binding signal (z-score),[19],-0.193
same,glycan array binding signal (z-score),[20],-0.191
same,glycan array binding signal (z-score),[21],-0.206
same,glycan array binding signal (z-score),[22],-0.215
same,glycan array binding signal (z-score),[23],-0.208
same,glycan array binding signal (z-score),[24],-0.186
same,glycan array binding signal (z-score),[25],-0.192
same,glycan array binding signal (z-score),[26],-0.18
same,glycan array binding signal (z-score),[27],-0.184
same,glycan array binding signal (z-score),[28],-0.164
same,glycan array binding signal (z-score),[29],-0.18
same,glycan array binding signal (z-score),[30],-0.194
same,glycan array binding signal (z-score),[31],-0.21
same,glycan array binding signal (z-score),[32],-0.207
same,glycan array binding signal (z-score),[33],-0.213
same,glycan array binding signal (z-score),[34],0.371
same,glycan array binding signal (z-score),[35],-0.219
same,glycan array binding signal (z-score),[36],-0.216
same,glycan array binding signal (z-score),[37],-0.199
same,glycan array binding signal (z-score),[38],-0.22
same,glycan array binding signal (z-score),[39],-0.209
same,glycan array binding signal (z-score),[40],-0.211
same,glycan array binding signal (z-score),[41],-0.211
same,glycan array binding signal (z-score),[42],-0.171
same,glycan array binding signal (z-score),[43],-0.218
same,glycan array binding signal (z-score),[44],-0.211
same,glycan array binding signal (z-score),[45],-0.204
